This note sets out measurements from PubChem BioAssay AID488969 (Vanderbilt High Throughput Screening Facility, 2010).

SMILES strings stand for the structures. The full ranking holds about 110,000 compounds; the median of “z-score” is about -0.1, and the highest 2% start at about 2. The list shows a part of the results.

For this test, the target named is Metabotropic glutamate receptor 8 (Rattus norvegicus) (UniProt P70579). Put plainly: rat mGluR8 modulators via GIRK flux, primary screen, cell-based, thallium flux, HTS (AID 488969). The following applies: HEK293 rat mGluR8, GIRK (G protein-gated inwardly rectifying potassium channel) thallium flux, FluoZin2; at 10 µM; stronger effect = higher value; submaximal glutamate (EC20) added with thallium.
Sequence of UniProt P70579 (P70579 whole entry, looked up): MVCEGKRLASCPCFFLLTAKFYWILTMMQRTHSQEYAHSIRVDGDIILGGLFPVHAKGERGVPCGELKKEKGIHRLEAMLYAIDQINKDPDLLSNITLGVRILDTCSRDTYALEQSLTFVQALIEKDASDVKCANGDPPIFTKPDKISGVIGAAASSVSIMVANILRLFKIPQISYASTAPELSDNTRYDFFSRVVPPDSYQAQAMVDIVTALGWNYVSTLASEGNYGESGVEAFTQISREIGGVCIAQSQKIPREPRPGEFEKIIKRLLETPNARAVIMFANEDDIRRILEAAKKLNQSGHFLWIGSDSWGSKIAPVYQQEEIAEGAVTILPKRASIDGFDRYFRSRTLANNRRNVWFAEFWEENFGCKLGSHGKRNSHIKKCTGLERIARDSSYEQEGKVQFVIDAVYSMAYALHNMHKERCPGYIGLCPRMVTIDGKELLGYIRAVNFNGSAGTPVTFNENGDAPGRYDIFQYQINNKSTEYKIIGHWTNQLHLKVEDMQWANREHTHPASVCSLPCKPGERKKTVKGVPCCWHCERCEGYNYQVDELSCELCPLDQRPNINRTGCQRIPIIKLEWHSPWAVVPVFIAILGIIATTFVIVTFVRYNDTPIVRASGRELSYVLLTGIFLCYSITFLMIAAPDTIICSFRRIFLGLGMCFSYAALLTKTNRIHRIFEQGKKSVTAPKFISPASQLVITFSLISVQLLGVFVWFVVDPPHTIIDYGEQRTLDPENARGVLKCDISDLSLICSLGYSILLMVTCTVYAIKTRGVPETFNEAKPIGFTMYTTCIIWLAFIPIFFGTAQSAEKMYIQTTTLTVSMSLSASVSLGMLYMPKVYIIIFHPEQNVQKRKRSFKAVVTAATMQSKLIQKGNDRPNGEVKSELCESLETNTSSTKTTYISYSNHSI
Compound `O=C(NCc1ccc2c(c1)OCO2)C1CCCN(C(=O)c2ccc(Cl)cc2)C1` (stereo not given) came in with a z-score of -0.19.
For the compound `Cc1ccc(C)c(N2CCN(C(=O)CCNC(=O)Cn3ccc4ccccc4c3=O)CC2)c1`, the z-score was -0.336.
Compound `COc1ccccc1NC(=O)N(Cc1ccco1)Cc1cc2c(C)ccc(C)c2[nH]c1=O` came in with a z-score of -0.193.
`CN1C(=O)CC(N2CCN(c3ccccc3)CC2)C1=O` (stereo not given) gave a z-score of -0.119.
`CN1CCN(S(=O)(=O)c2ccc(NC(=O)c3cccs3)cc2)CC1` returned a z-score of -0.184.
`CCOc1ccc(OCCOc2ncnc3ccccc23)cc1` displayed a z-score of 0.0424.
In the case of `COc1ccc(NC(=O)c2cc(SC)ccc2Cl)cc1` it was -0.371; in that of `COc1ccc(CNCC(O)(c2ccccc2)c2ccc(Cl)cc2)cc1` (stereo not given), 0.316.
The compound `C=CCNC(=S)NNc1nc2c(c(=O)[nH]1)C1(CCCCC1)Cc1ccccc1-2` displayed a z-score of -0.285.
On to `CC(C)Oc1ccc(S(=O)(=O)N(C(C)C)C(C)C)cn1`, for which the z-score is -0.497.
`COc1ccc(Cl)cc1NC(=O)c1ccoc1C` had a z-score of -0.939.
On to `COc1ccc(-n2ccnc2SCC(=O)Nc2ccc(OC)cc2OC)cc1`, for which the z-score is -0.371.
In the case of `O=C(CSc1nc(-c2cccs2)cc(C(F)(F)F)n1)NCCCn1ccnc1` it was -0.35; in that of `CCN1CCN(c2nc(-c3ccncc3)nc3ccccc23)CC1`, -0.184.
Compound `COc1ccc([N+](=O)[O-])cc1NCc1ccccc1` registered a z-score of -0.448.
In turn, `O=c1c2cc(Cl)ccc2oc2nc3n(c(=O)c12)CCCS3` registered a z-score of 0.0365.
In the case of `O=C(Cn1nc(-c2ccccc2F)ccc1=O)Nc1ccc(S(=O)(=O)N2CCCCCC2)cc1` it was -0.105.
The result for `COc1cccc(/C=N/NC(=O)CO/N=C(\C)c2cccs2)c1OC` reads -0.782; that for `CC(C)C(=O)Nc1nnc(CCN2CCCCC2)s1`, 1.67.
In the case of `Cc1ccc(NNC(=S)Nc2ccc(C(C)C)cc2)c(C)c1`, the z-score was -1.28.
Compound `C/C(=N/NC(=O)c1ccoc1C)c1cccc(NC(=O)C2CC2)c1` yielded a z-score of -0.503.
In the case of `COc1cc(/C=N/n2cnnc2)ccc1OS(=O)(=O)c1ccccc1[N+](=O)[O-]`, the z-score was -0.365.
In the case of `O=C(Nc1ccc(Cl)cc1)N(C1=NCCC1)c1ccc(OC(F)F)cc1`, the z-score is 0.798.
`COCCNC(=O)c1onc(CSc2ccccc2C)c1C(=O)O` yielded a z-score of -0.0186.
`O=C(Nc1nccs1)c1cc(-c2ccccc2)nc2ccccc12` gave a z-score of -0.659.
For `COCCN(C(=O)CNC(=O)c1ccco1)C(C(=O)NC1CCCC1)c1cccs1` (stereo not given), the z-score is -0.163.
In the case of `COc1cc(SC#N)ccc1N=Cc1c(C)[nH]n(-c2ccc(Cl)cc2)c1=O` it was -0.12; in that of `CC(=O)NNC(=O)c1ccncc1`, 0.258.
The result for `CCOC(=O)Cn1c(CN2CCN(C(c3ccccc3)c3ccccc3)CC2)nc2c1c(=O)n(C)c(=O)n2C` reads -0.899; that for `COc1cc(NS(=O)(=O)c2ccc(NC(=O)COc3ccc(C)cc3)cc2)nc(OC)n1`, -0.0517.
